Ten variants from the supplement of paper PMC12217912 can be followed below.

To fix the notation:
B1: TEV protease; numbered along this chain (parent)
chain: MGESLFKGPRDYNPISSSICHLTNESDGHTTSLYGIGFGPFIITNKHLFRRNNGTLVVQSLHGVFKVKDTTTLQQHLVDGRDMIIIRMPKDFPPFPQKLKFREPQREERICLVTTNFQTKSMSSMVSDTSCTFPSGDGIFWKHWIQTKDGQCGSPLVSTRDGFIVGIHSASNFTNTNNYFTSVPKNFMELLTNQEAQQWVSGWRLNADSVLWGGHKVFMVKPEEPFQPVKEATQL

This is one part of the list. Sequences were assembled here from the parent chain. Values near 0.05 are background.

The variants in this assay derive from B1. As to the kind of experiment: raw area under fraction-flipped curve 0-4 h after induction (AUC4h, not background-subtracted), DNA-recorder readout of cleavage of the substrate (dimensionless); higher = more cleavage of the substrate by the protease variant. To be noted: temperature: 34 °C; time window: 0-4 h after rhamnose induction.
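Note: Bxb1 expression induced with 0.2% (w/v) L-rhamnose at OD600 near 0.5, cultures sampled hourly, flipped fraction per protease–substrate barcode pair counted by paired-end Illumina sequencing.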

With MGESLFKGPRDYNPISSSICHLTNESDGHTTSLYGIGFGPFIITNKHLFRRNNGTLVVQSLHGVFSVKDTTTLQQHLVDGRDMIIIRMPKDFPPFPQKLKFREPQREERICLVTTNFQTKSMSSMVSDTSCTFPSGDGIFWKHWIQTKDGQCGSPLVSTRDGFIVGIHSASNFTNTNNYFTSVPKNFMELLTNQEAQQWVSGWRLNADSVLWGGHKVFMVKPEEPFQPVKEATQL [K66S], the “area with substrate ENDYFQS” value was 0.0586, the “area with substrate ENEYFQS” value was 0.0616, the “area with substrate ENGYFQS” value amounted to 0.0585 and the “area with substrate ENHYFQS” value is 0.0728. Also, the “area with substrate ENIYFQS” value amounted to 0.112, the “area with substrate ENKYFQS” value stood at 0.066, the “area with substrate ENMYFQS” value was found to be 0.092 and the “area with substrate ENNYFQS” value turned out to be 0.0699. Also, the “area with substrate ENPYFQS” value was determined as 0.0586, the “area with substrate ENQYFQS” value amounted to 0.0544, the “area with substrate ENSYFQS” value turned out to be 0.0579 and the “area with substrate ENYYFQS” value amounted to 0.0921.

Regarding MGESLFKGPRDYNPISSSICHLTNESDGHTTSLYGIGFGPFIITNKHLFRRNNGTLVVQSLHGVFKVKDTTTLQQHLVDGRDMIIIRMPKDFPPFPQKLKFREKQREERICLVTTNFQTKSMSSMVSDTSCTFPSGDGIFWKHWIQTKDGQCGSPLVSTRDGFIVGIHSASNFTNTNNYFTSVPKNFMELLTNQEAQQWVSGWRLNADSVLWGGHKVFMVKPEEPFQPVKEATQL [P104K], the “area with substrate ENDYFQS” value came out at 0.0572, the “area with substrate ENEYFQS” value amounted to 0.0641, the “area with substrate ENFYFQS” value was found to be 0.0531 and the “area with substrate ENHYFQS” value worked out at 0.0483. Also, the “area with substrate ENMYFQS” value worked out at 0.0618 and the “area with substrate ENVYFQS” value amounted to 0.0479.

As for MGESLFKGPRDYNPISSSICHLTNESDGHTTSLYGIGFGPFIITNKHLFRRNNGTLVVQSLHGVFKVKDTTTLQQHLVDGRDMIIIRMPKDFPPFPQKLKFREPQREERICLVTTNFQTKSMSSMVSDTSCTFPSGDGIFWKHWIQTKDGQQGSPLVSTRDGFIVGIHSASNFTNTNNYFTSVPKNFMELLTNQEAQQWVSGWRLNADSVLWGGHKVFMVKPEEPFQPVKEATQL [C152Q], the “area with substrate ENDYFQS” value worked out at 0.065, the “area with substrate ENFYFQS” value is 0.0077, the “area with substrate ENPYFQS” value was 0.0736 and the “area with substrate ENQYFQS” value is 0.107. The “area with substrate ENVYFQS” value came to 0.0239.

Regarding MGESLFKGPRDYNPISSSICHLTNESDGHTTSLYGIGFGPFIITNKHLFRRNNGTLVVQSLHGVFKVKDTTTLQQHLVDGRDMIIIRMPKDFPPFPQKLKFREPQREERICLVTTNFQTKSMSSMVSDTSCTFPSGDGIFWKHWIQTKDGQCGSPLVSTRDGFIVGIHSASNFTNHNNYFTSVPKNFMELLTNQEAQQWVSGWRLNADSVLWGGHKVFMVKPEEPFQPVKEATQL [T176H], the “area with substrate ENDYFQS” value came to 0.0641, the “area with substrate ENEYFQS” value was 0.0687, the “area with substrate ENHYFQS” value was 0.0744 and the “area with substrate ENIYFQS” value worked out at 0.0662. The “area with substrate ENMYFQS” value was 0.0661, the “area with substrate ENNYFQS” value turned out to be 0.0611, the “area with substrate ENQYFQS” value came out at 0.0741 and the “area with substrate ENRYFQS” value stood at 0.0676. Also, the “area with substrate ENVYFQS” value was found to be 0.0485.

For MGESLFKGPRDYNPISSSICHLTNESDGHTTSLYGIGFGPFIITNKHLFRRNNGTLVVQSLHGVFKVKDTTTLQQHLVDGRDMIIIRMPKDFPPFPQKLKFREPQREERICLVTTNFQTKSMSSMVSDTSCTFPSGDGIFWKHWIQTKDGQCGSPLVSTRDGFIVGIHSASNFTNGNNYFTSVPKNFMELLTNQEAQQWVSGWRLNADSVLWGGHKVFMVKPEEPFQPVKEATQL [T176G], the “area with substrate ENDYFQS” value is 0.0606, the “area with substrate ENEYFQS” value was 0.0589, the “area with substrate ENHYFQS” value came out at 0.0563 and the “area with substrate ENKYFQS” value was 0.077. Further, the “area with substrate ENNYFQS” value stood at 0.0656, the “area with substrate ENQYFQS” value was 0.0552, the “area with substrate ENRYFQS” value was determined as 0.0703 and the “area with substrate ENSYFQS” value is 0.0678. In addition, the “area with substrate ENWYFQS” value turned out to be 0.0546.

Take MGESLFKGPRDYNPISSSICHLTNESDGHTTSLYGIGFGPFIITNKHLFRRNNGTLVVQSLHGVFKVKDTTTLQQHLVDGRDMIIIRMPKDFPPFPQKLKFREPQREERICLVTTNFQTKSMSSMVSDTSCTFPSGDGIFWKHWIQTKRGQCGSPLVSTRDGFIVGIHSASNFTNTNNYFTSVPKNFMELLTNQEAQQWVSGWRLNADSVLWGGHKVFMVKPEEPFQPVKEATQL [D149R]: the “area with substrate ENDYFQS” value was 0.0557, the “area with substrate ENEYFQS” value was determined as 0.0596, the “area with substrate ENGYFQS” value turned out to be 0.0434 and the “area with substrate ENNYFQS” value came out at 0.0473. Besides, the “area with substrate ENQYFQS” value came to 0.047 and the “area with substrate ENSYFQS” value stood at 0.0587.

Consider MGESLFKGPRDYNPISSSICHLTNESDGHTTSLYGIGFGPFIITNKHLFRRNNGTLVVQSLHGVFKVKDTTTLQQHLVDGRDMIIIRMPKDFPPFPQKLKFREPQREERICLVTTNFQTKSMSSMVSDTSCTFPSGDGIFWKHWIQTKDGQCGSPLVSTRDGHIVGIHSASNFTNTNNYFTSVPKNFMELLTNQEAQQWVSGWRLNADSVLWGGHKVFMVKPEEPFQPVKEATQL [F163H], for which the “area with substrate ENDYFQS” value turned out to be 0.0697, the “area with substrate ENFYFQS” value turned out to be 0.0358, the “area with substrate ENHYFQS” value amounted to 0.0743 and the “area with substrate ENKYFQS” value amounted to 0.0597. Besides, the “area with substrate ENQYFQS” value is 0.0494, the “area with substrate ENVYFQS” value is 0.0469 and the “area with substrate ENYYFQS” value stood at 0.0556.

As for MGESLFKGPRDYNPISSSICHLTNESDGHTTSLYGIGFGPFIITNKHTFRRNNGTLVVQSLHGVFKVKDTTTLQQHLVDGRDMIIIRMPKDFPPFPQKLKFREPQREERICLVTTNFQTKSMSSMVSDTSCTFPSGDGIFWKHWIQTKDGQCGSPLVSTRDGFIVGIHSASNFTNTNNYFTSVPKNFMELLTNQEAQQWVSGWRLNADSVLWGGHKVFMVKPEEPFQPVKEATQL [L48T], the “area with substrate ENDYFQS” value worked out at 0.054, the “area with substrate ENEYFQS” value amounted to 0.0653, the “area with substrate ENFYFQS” value worked out at 0.0433 and the “area with substrate ENGYFQS” value stood at 0.0438. In addition, the “area with substrate ENHYFQS” value came out at 0.0623, the “area with substrate ENKYFQS” value stood at 0.0717, the “area with substrate ENMYFQS” value stood at 0.0641 and the “area with substrate ENQYFQS” value worked out at 0.0451. In addition, the “area with substrate ENRYFQS” value amounted to 0.025, the “area with substrate ENSYFQS” value came out at 0.0585, the “area with substrate ENTYFQS” value worked out at 0.0656 and the “area with substrate ENVYFQS” value came to 0.0592. Also, the “area with substrate ENYYFQS” value is 0.0777.

Turning to MGESLFKGPRDYNPISSSICHLTNESDGHTTSLYGIGFGPFIITNKHLFRRNNGTLRVQSLHGVFKVKDTTTLQQHLVDGRDMIIIRMPKDFPPFPQKLKFREPQREERICLVTTNFQTKSMSSMVSDTSCTFPSGDGIFWKHWIQTKDGQCGSPLVSTRDGFIVGIHSASNFTNTNNYFTSVPKNFMELLTNQEAQQWVSGWRLNADSVLWGGHKVFMVKPEEPFQPVKEATQL [V57R], the “area with substrate ENDYFQS” value worked out at 0.059, the “area with substrate ENEYFQS” value is 0.0542, the “area with substrate ENFYFQS” value is 0.08 and the “area with substrate ENIYFQS” value worked out at 0.127. The “area with substrate ENMYFQS” value stood at 0.103, the “area with substrate ENQYFQS” value worked out at 0.0627, the “area with substrate ENSYFQS” value amounted to 0.0628 and the “area with substrate ENTYFQS” value turned out to be 0.0789. The “area with substrate ENVYFQS” value came to 0.0773 and the “area with substrate ENWYFQS” value turned out to be 0.0635.

Consider MGESLFKGPRDYNPISSSICHLTNESDGHTTSLYGIGFGPFIITNKHLFRRNNGTLVVQSLHGVFKVKDTTTLQQHLVDGRDMIIIRMPKDFPPFPQKLKFREPQREERICLVTTNFQTKSMSSMVSDTSCTFPSGDGIFWKHIIQTKDGQCGSPLVSTRDGFIVGIHSASNFTNTNNYFTSVPKNFMELLTNQEAQQWVSGWRLNADSVLWGGHKVFMVKPEEPFQPVKEATQL [W144I], for which the “area with substrate ENDYFQS” value was found to be 0.0682, the “area with substrate ENEYFQS” value amounted to 0.0687, the “area with substrate ENGYFQS” value is 0.0754 and the “area with substrate ENIYFQS” value is 0.0879. Also, the “area with substrate ENQYFQS” value stood at 0.0615, the “area with substrate ENRYFQS” value was 0.048, the “area with substrate ENSYFQS” value amounted to 0.065 and the “area with substrate ENTYFQS” value came to 0.0481. The “area with substrate ENVYFQS” value was found to be 0.0729 and the “area with substrate ENYYFQS” value was found to be 0.0597.
